Experimental data as given in PubChem BioAssay AID624417 (National Center for Advancing Translational Sciences (NCATS), 2012).
Among all 410,000 compounds or so, about 6,400 (1.6%) were called active. Inconclusive means that the source gave no clear call. Such entries were picked first, then a sample of the others. Calls come from the whole dose curve; as a rule, active = well fitted inhibition curve with a large enough effect; inconclusive = small, poorly fitted or top-dose-only effect; inactive = no such curve, though single readings can be large or run the other way. No potency is given beside an inconclusive call; the fits are too rough.

What follows are molecules tested against Glucagon-like peptide 1 receptor (Homo sapiens) (UniProt P43220) (assay: qHTS of GLP-1 Receptor Inverse Agonists (Inhibition Mode)). Settings: HEK293 GLP-1R CRE-luciferase, luminescence, 24 h, GLP-1R form is constitutively active; activity change, negative = inhibition: at 38.3 µM (top of the series) unless noted.
Sequence of UniProt P43220 (P43220 whole entry, looked up): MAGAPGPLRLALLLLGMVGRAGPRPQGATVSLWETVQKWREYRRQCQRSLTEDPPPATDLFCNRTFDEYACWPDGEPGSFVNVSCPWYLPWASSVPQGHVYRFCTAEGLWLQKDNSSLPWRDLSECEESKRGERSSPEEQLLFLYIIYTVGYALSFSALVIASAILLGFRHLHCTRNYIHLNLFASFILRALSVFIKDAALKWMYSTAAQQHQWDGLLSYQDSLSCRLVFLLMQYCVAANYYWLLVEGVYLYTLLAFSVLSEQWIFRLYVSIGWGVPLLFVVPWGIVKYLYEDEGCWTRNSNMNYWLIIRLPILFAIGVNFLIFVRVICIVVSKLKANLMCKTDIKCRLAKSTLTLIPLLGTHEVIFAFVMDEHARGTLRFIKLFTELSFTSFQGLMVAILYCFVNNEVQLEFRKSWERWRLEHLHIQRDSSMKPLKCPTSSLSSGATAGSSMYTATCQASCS
Summary of the method: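 Using stably transfected HEK293 (constitutively active GLP-1R, cAMP-luciferase reporter), compounds were incubated 24 hr and luciferase measured by luminescence.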
% is set by controls: 0 for no effect and ±100 for the full control effect; potency is the fitted concentration of half-maximal effect; tags give direction and shape of the fitted curve.
Note: nearly all actives have a fitted effect of over 55% in size.

| SMILES | Potency | activity change, negative = inhibition |
| --- | --- | --- |
| O=P(c1ccccc1)(c1ccccc1)c1nc(-c2ccccc2)oc1N1CCOCC1 | inconclusive [inhibitor, single point] |  |
| Fc1ccccc1CN1CCC(Cc2ccccc2)CC1 | inconclusive [inhibitor, single point] |  |
| COc1cc(CNn2cn[nH]c2=S)cc(Br)c1OCc1ccccc1F | inconclusive [inhibitor, single point] |  |
| Cc1cccc(C)c1-n1nnnc1C(c1ccccc1)N1CCN(C/C=C/c2ccccc2)CC1 (stereo not drawn) | inconclusive [inhibitor, single point] |  |
| O=C(CSc1nc2ccccc2[nH]1)Nc1c(F)c(F)c(F)c(F)c1F | inconclusive [inhibitor, single point] |  |
| CC(C)CCn1c(=O)c2c(nc3n2CCCN3Cc2ccccc2)n(C)c1=O | inconclusive [inhibitor, partial curve, poor fit] |  |
| COc1cc(CN2CCN(Cc3ccc(C)cc3)CC2)c([N+](=O)[O-])cc1OC | inconclusive [inhibitor, partial curve] |  |
| COCCNC(=O)c1cc(-c2ccc(-c3ccccc3)cc2)nc2ccccc12 | inconclusive [inhibitor, full curve, poor fit] |  |
| CCOc1cc2[nH]c(=O)n(CCCCC(=O)N3CCN(c4ccccc4OC)CC3)c(=O)c2cc1OCC | inactive |  |
| Cc1ccccc1C(=O)Nc1sc2c(c1C(=O)N1CCC(C)CC1)CCC(C)C2 (stereo not drawn) | inactive |  |
| CN(C)C(=N)c1n[nH]nc1SCc1ccc(Cl)c(Cl)c1 |  | inactive: 8.98% [at 7.66 µM] |
| CC(C)c1cc(C(=O)OCC(=O)NC2CC2)c(O)c(C(C)C)c1 | inconclusive [inhibitor, partial curve, poor fit] |  |
| CCN(CC(=O)Nc1ccc2c(c1)OCCO2)C(=O)c1cccc(OCC(C)C)c1 | inconclusive [inhibitor, single point] |  |
| O=C(CNCc1ccccc1)Nc1cccc(Cl)c1Cl | inconclusive [inhibitor, partial curve] |  |
| CCN(CC)c1ccc(/C=N/n2c(-c3ccccc3Br)n[nH]c2=S)cc1 | inconclusive [inhibitor, single point] |  |
| COc1cccc(C(=O)CC2(O)C(=O)N(Cc3ccccc3)c3ccccc32)c1 (stereo not drawn) | inactive |  |
| Cc1ccc(C(=O)OCC(=O)NC(C)C2CC3CCC2C3)cc1N (stereo not drawn) | inconclusive [inhibitor, full curve] |  |
| COc1cccc(-c2csc(N3CCN(S(=O)(=O)c4ccc(F)cc4)CC3)n2)c1 | inactive |  |
| O=C(Nc1ccc(N2CCCCC2)cc1)c1ccc2ccccc2n1 | inconclusive [inhibitor, full curve, poor fit] |  |
| COc1ccc2[nH]c3c(c2c1)CCN1C(=O)N([C@@H](C)C(=O)NCCc2ccc(F)cc2)C(=O)[C@]31C | inconclusive [inhibitor, partial curve, poor fit] |  |
| COc1ccc(N2C(=O)CSC23C(=O)N2c4c(cccc43)C(C)=CC2(C)C)cc1 (stereo not drawn) | inconclusive [inhibitor, single point] |  |

| SMILES | Potency | activity change, negative = inhibition |
| --- | --- | --- |
| Cc1ccc(C(=O)N2CCN(CCNC(=O)C(=O)Nc3ccc(Cl)cc3)CC2)cc1 | inactive |  |
| CCCCCCn1cnc2c(oc3nc4c(cc32)CCCC4)c1=O | inactive |  |
| CC1(C)C2CCC1(CS(=O)(=O)NCc1ccc(Cl)cc1Cl)C(=O)C2 (stereo not drawn) | inconclusive [inhibitor, partial curve, poor fit] |  |
| O=C(Nc1ccc([N+](=O)[O-])cc1)N1CCc2ccccc2C1 | inconclusive [inhibitor, single point] |  |
| Cc1ccc(NC(=O)c2cccc(S(=O)(=O)N3CCN(c4ccccc4)CC3)c2)nc1 | inconclusive [inhibitor, single point] |  |
| COc1ccc(CNC(=O)C(CC(C)C)N2Cc3ccccc3C2=O)cc1 (stereo not drawn) | inconclusive [inhibitor, single point] |  |
| COc1ccc(C2=NO[C@@H]3C(=O)N(c4cccc(C)c4C)C(=O)[C@H]23)cc1OC | inactive |  |
| CCN(CC)CCOC(=O)c1ccc(Nc2c3c(nc4ccccc24)CCC3)cc1 | inconclusive [inhibitor, single point] |  |
| COc1ccc(C(=O)C(=O)N2CCC(Cc3ccccc3)CC2)cc1OC | inconclusive [inhibitor, single point] |  |
| CCN1CCSc2ccc(C(=O)NCc3ccccc3C)cc21 | inconclusive [inhibitor, partial curve, poor fit] |  |
| CC(C)C(=O)NC(=S)N(Cc1ccccc1)Cc1ccccc1 | inconclusive [inhibitor, single point] |  |
| CCOC(=O)c1cnc2ccc(C)cc2c1Sc1ccccc1 | inconclusive [inhibitor, single point] |  |
| CCN(CC)CCOC(=O)c1ccc(NC(=O)c2cc3c(s2)-c2ccccc2OC3)cc1 | inconclusive [inhibitor, partial curve, poor fit] |  |
| Cc1nc(-c2ccc(S(=O)(=O)Nc3ccc(Cl)c(C(F)(F)F)c3)cc2)co1 | inconclusive [inhibitor, single point] |  |
| CCC(C)Oc1ccc(/C=C/c2[nH]c(=O)[nH]c(=O)c2[N+](=O)[O-])cc1OC (stereo not drawn) | inconclusive [inhibitor, single point] |  |
| CCN(Cc1ccccc1)S(=O)(=O)c1ccc2c(c1)NC(=O)CS2 | inconclusive [inhibitor, partial curve, poor fit] |  |
| CCOC(=O)c1cc2c(ccn2C)n1Cc1ccc(Cl)cc1 | inconclusive [inhibitor, partial curve, poor fit] |  |
| CCc1ccc(NC(=O)CN2C(=O)c3ccccc3Sc3ccc(C(=O)N4CCCC4)cc32)cc1 | inconclusive [inhibitor, single point] |  |
| O=C(Nc1cccc(-n2cccn2)c1)C1CCCN(Cc2ccccc2F)C1 (stereo not drawn) | inconclusive [inhibitor, single point] |  |
| COc1ccc(C(CNC(=O)C(C)(C)Oc2ccc(Cl)cc2)N2CCCC2)cc1 (stereo not drawn) | inconclusive [inhibitor, partial curve, poor fit] |  |
| CCOC(=O)N1CCN(CC(=O)Nc2cc(OCC)ccc2OCC)CC1 | inconclusive [inhibitor, partial curve, poor fit] |  |

| SMILES | Potency | activity change, negative = inhibition |
| --- | --- | --- |
| CCCNC(=O)C1(C)CCCN(Cc2ccc(Oc3ccccc3)cc2)C1 (stereo not drawn) | inconclusive [inhibitor, single point] |  |
| CN1CCN(C2CCN(S(=O)(=O)c3ccc(C(C)(C)C)cc3)CC2)CC1 | inconclusive [inhibitor, full curve, poor fit] |  |
| O=C(/C(=C\c1ccccc1)c1nc2ccccc2[nH]1)c1ccc(Cl)cc1 | inconclusive [inhibitor, partial curve, poor fit] |  |
| COc1ccc(C(=O)c2oc3ccccc3c2NC(=O)c2cccc(OC)c2)cc1 | inconclusive [inhibitor, single point] |  |
| CCOC(=O)c1cc(-c2ccccc2)n(CCCC(=O)Nc2ccccc2C)c1C | inconclusive [inhibitor, single point] |  |
| O=C1CC(=O)N(c2cccc(F)c2)N1 | inconclusive [inhibitor, full curve, poor fit] |  |
| Cc1ccc(NC(=S)N2CCCC(c3nc4ccc(C)cc4[nH]3)C2)c(C)c1 (stereo not drawn) | inconclusive [inhibitor, single point] |  |
| Cc1cc(OCCN2CCC(Cc3ccccc3)CC2)ccc1[N+](=O)[O-] | active: 11.2 µM |  |
| CCN(CC)S(=O)(=O)c1ccc2oc(C(=O)NCc3ccc(F)cc3)c(C)c2c1 | active: 3.55 µM |  |
| O=C(Nc1ccc(Cl)c(Cl)c1)Nc1cc(S(=O)(=O)N2CCOCC2)ccc1N1CCCC1 | inconclusive [inhibitor, single point] |  |
| CC(C)Cc1nc(N2CCN(C(=O)c3ccco3)CC2)c(C#N)c2c1CCC2 | inconclusive [inhibitor, single point] |  |
| CCCN(CCC)C(=O)c1nn(C)c2c1CSc1ccc(C)cc1-2 | inconclusive [inhibitor, single point] |  |
| CCn1c(=O)c2cc(C(=O)N(C)c3cc(C)ccc3OC)sc2c2ccccc21 | inconclusive [inhibitor, single point] |  |
| O=C(O)c1ccc(-n2c(-c3ccccc3)n[nH]c2=S)cc1 | inactive |  |
| CSc1nc2ccccc2n1Cc1c(Cl)cccc1Cl | inconclusive [inhibitor, single point] |  |
| CCCCCC(=O)N1C[C@H](O)[C@@H](n2cc(COC(=O)c3ccccc3)nn2)C[C@@H]1c1ccc(Cl)cc1 | inconclusive [inhibitor, single point] |  |
| COc1cccc(CN2CCN(c3ncccn3)CC2)c1 | inactive |  |
| CCOc1cccc(CC(=O)N2CCc3c([nH]c4ccccc34)C2c2ccc(SC)cc2)c1OCC (stereo not drawn) | inactive |  |
| COc1cc2[nH]c3c(N4CCN(c5ccccn5)CC4)ncnc3c2cc1OC | inconclusive [inhibitor, single point] |  |
| Cc1ccc(OCCN2CCOCC2)cc1C | inactive |  |
| COc1ccc(N2C(=O)CSC23C(=O)N(Cc2ccc(C)cc2)c2ccccc23)cc1Cl (stereo not drawn) | inconclusive [inhibitor, single point] |  |
